The supplement of paper PMC4967469
Lines with a small IC50 respond at low doses; a limit (>, <) means that the fit lies beyond the doses tested. AUC, from the same fit, is the share of area under the viability curve across the 256-fold dose range: 1 means no effect, lower means more sensitive. For part of these data: The top dose, if marked as inferred, was calculated from the reported fits. For part of these data: An entry number marks a drug with two screens in the source, which often give different values.

Experiments:
Experiment in all cases: Viability of human cancer cell lines after 72 h of drug (GDSC screen)
LFM-A13 = compound: C/C(O)=C(\C#N)C(=O)Nc1cc(Br)ccc1Br [LFM-A13]; settings: top dose 16 µM; top dose inferred
Procedure: (§1)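 Human cancer cell lines in 384-well plates, medium with 10% serum, drug for 72 h over a 256-fold dose range (nine 2-fold or five 4-fold steps up to the top dose). Adherent lines were fixed and stained with the nucleic acid dye Syto60, suspension lines read with resazurin; signal relative to control wells, capped at 0 and 100%. One two-parameter sigmoid per drug and line, fitted in a mixed model over all curves with the slope shared within a line.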

TW-37 = compound: CC(C)c1ccccc1Cc1cc(C(=O)Nc2ccc(S(=O)(=O)c3ccccc3C(C)(C)C)cc2)c(O)c(O)c1O [TW-37]; settings: top dose 5 µM
Procedure: as §1

Bicalutamide = compound: CC(O)(CS(=O)(=O)c1ccc(F)cc1)C(=O)Nc1ccc(C#N)c(C(F)(F)F)c1 [Bicalutamide]; settings: top dose inferred
Procedure: as §1

AUY922 = compound: CCNC(=O)c1noc(-c2cc(C(C)C)c(O)cc2O)c1-c1ccc(CN2CCOCC2)cc1 [AUY922]; settings: top dose 0.256 µM; top dose inferred
Procedure: as §1

KIN001-270 = compound: Cc1ccc(Nc2cc(-c3cccc(N4C(=O)c5ccccc5C4=O)c3)ncn2)cc1NS(C)(=O)=O [KIN001-270]; settings: top dose 20 µM; top dose inferred
Procedure: as §1

Nilotinib = compound: Cc1cn(-c2cc(NC(=O)c3ccc(C)c(Nc4nccc(-c5cccnc5)n4)c3)cc(C(F)(F)F)c2)cn1 [Nilotinib]; settings: top dose 2 µM
Procedure: as §1

GNF-2 = compound: NC(=O)c1cccc(-c2cc(Nc3ccc(OC(F)(F)F)cc3)ncn2)c1 [GNF-2]; settings: top dose 1.28 µM; top dose inferred
Procedure: as §1

Gemcitabine = compound: Nc1ccn([C@@H]2O[C@H](CO)[C@@H](O)C2(F)F)c(=O)n1 [Gemcitabine]; settings: top dose 1.024 µM
Procedure: as §1

T0901317 = compound: O=S(=O)(c1ccccc1)N(CC(F)(F)F)c1ccc(C(O)(C(F)(F)F)C(F)(F)F)cc1 [T0901317]; settings: top dose 10.24 µM; top dose inferred
Procedure: as §1

MP470 = compound: S=C(NCc1ccc2c(c1)OCO2)N1CCN(c2ncnc3c2oc2ccccc23)CC1 [MP470]; settings: top dose 20 µM; top dose inferred
Procedure: as §1

[1] = top dose 1.024 µM, screen: GDSC drug entry 150
[2] = top dose 10 µM, screen: GDSC drug entry 1502

Cell Line | AUC (LFM-A13) | IC50 (LFM-A13) [µM] | AUC (TW-37) | IC50 (TW-37) [µM] | AUC (Bicalutamide; [1]) | IC50 (Bicalutamide; [1]) [µM] | AUC (Bicalutamide; [2]) | IC50 (Bicalutamide; [2]) [µM] | AUC (AUY922) | IC50 (AUY922) [µM] | AUC (KIN001-270) | IC50 (KIN001-270) [µM] | AUC (Nilotinib) | IC50 (Nilotinib) [µM] | AUC (GNF-2) | IC50 (GNF-2) [µM] | AUC (Gemcitabine) | IC50 (Gemcitabine) [µM] | AUC (T0901317) | IC50 (T0901317) [µM] | AUC (MP470) | IC50 (MP470) [µM]
ROS-50 (B-cell leukaemia, suspension) | 0.968 | > 16 | 0.766 | 2.34 | 0.983 | > 1.02 | 0.979 | > 10 | 0.902 | > 0.256 | 0.977 | > 20 | 0.982 | > 2 | 0.985 | > 1.28 | 0.894 | > 1.02 | 0.964 | > 10.2 | 0.944 | > 20
RPMI-6666 (Hodgkin lymphoma, suspension) | 0.896 | > 16 | 0.763 | 2.16 | 0.981 | > 1.02 | 0.979 | > 10 | 0.374 | 0.00669 | 0.899 | > 20 | 0.969 | > 2 | 0.98 | > 1.28 | 0.121 | < 0.004 | 0.896 | > 10.2 | 0.982 | > 20
RPMI-8402 (T-cell lymphoblastic leukaemia, suspension) | 0.986 | > 16 | 0.553 | 0.426 | 0.988 | > 1.02 | 0.977 | > 10 | 0.589 | 0.0268 | 0.935 | > 20 | 0.989 | > 2 | 0.991 | > 1.28 | 0.414 | 0.0387 | 0.912 | > 10.2 | 0.867 | 13.4
RPMI-8866 (chronic myeloid leukaemia, suspension) | 0.988 | > 16 | 0.402 | 0.172 | 0.987 | > 1.02 | 0.97 | > 10 | 0.736 | 0.0711 | 0.932 | > 20 | 0.856 | 1.42 | 0.988 | > 1.28 | 0.396 | 0.034 | 0.912 | > 10.2 | 0.906 | > 20
RXF393 (kidney, adherent) | 0.966 | > 16 | 0.671 | 1.14 | 0.976 | > 1.02 | 0.974 | > 10 | 0.384 | 0.00678 | 0.934 | > 20 | 0.924 | > 2 | 0.971 | > 1.28 | 0.661 | – | 0.972 | > 10.2 | 0.929 | > 20
Raji (Burkitt lymphoma, suspension) | 0.982 | > 16 | 0.76 | 1.65 | 0.99 | > 1.02 | 0.986 | > 10 | 0.814 | 0.128 | 0.971 | > 20 | 0.99 | > 2 | 0.984 | > 1.28 | 0.727 | 0.269 | 0.963 | > 10.2 | 0.974 | > 20
Ramos-2G6-4C10 (Burkitt lymphoma, suspension) | 0.985 | > 16 | 0.554 | 0.429 | 0.99 | > 1.02 | 0.989 | > 10 | 0.623 | 0.0331 | 0.969 | > 20 | 0.882 | 1.59 | 0.989 | > 1.28 | 0.79 | 0.384 | 0.946 | > 10.2 | 0.901 | 19.3
SBC-1 (small cell lung carcinoma, suspension) | 0.989 | > 16 | 0.596 | 0.566 | 0.978 | > 1.02 | 0.988 | > 10 | 0.939 | > 0.256 | 0.982 | > 20 | 0.989 | > 2 | 0.791 | 0.554 | 0.605 | 0.123 | 0.989 | > 10.2 | 0.652 | 3.24
SCH (stomach, adherent) | 0.982 | > 16 | 0.534 | 0.39 | 0.988 | > 1.02 | 0.98 | > 10 | 0.988 | > 0.256 | 0.982 | > 20 | 0.988 | > 2 | 0.976 | > 1.28 | 0.988 | > 1.02 | 0.984 | > 10.2 | 0.912 | > 20
SF126 (glioma, adherent) | 0.957 | > 16 | 0.316 | 0.0926 | 0.986 | > 1.02 | 0.983 | > 10 | 0.553 | 0.0225 | 0.985 | > 20 | 0.976 | > 2 | 0.943 | > 1.28 | 0.234 | 0.0103 | 0.983 | > 10.2 | 0.961 | > 20
SF268 (glioma, adherent) | 0.978 | > 16 | 0.483 | 0.279 | 0.985 | > 1.02 | 0.944 | > 10 | 0.651 | 0.0436 | 0.935 | > 20 | 0.97 | > 2 | 0.985 | > 1.28 | 0.177 | 0.00613 | 0.982 | > 10.2 | 0.89 | > 20
SF539 (glioma, adherent) | 0.98 | > 16 | 0.572 | 0.481 | 0.99 | > 1.02 | 0.982 | > 10 | 0.598 | 0.0288 | 0.972 | > 20 | 0.988 | > 2 | 0.988 | > 1.28 | 0.194 | 0.00892 | 0.988 | > 10.2 | 0.98 | > 20
SH-4 (melanoma, adherent) | 0.91 | > 16 | 0.436 | 0.191 | 0.974 | > 1.02 | 0.929 | > 10 | 0.633 | 0.0459 | 0.951 | > 20 | 0.97 | > 2 | 0.931 | > 1.28 | 0.364 | 0.0219 | 0.975 | > 10.2 | 0.923 | > 20
SHP-77 (small cell lung carcinoma, semi-adherent) | 0.991 | > 16 | 0.593 | 0.545 | 0.992 | > 1.02 | 0.991 | > 10 | 0.817 | 0.124 | 0.977 | > 20 | 0.991 | > 2 | 0.991 | > 1.28 | 0.914 | > 1.02 | 0.968 | > 10.2 | 0.323 | 0.427
SIMA (neuroblastoma, adherent) | 0.971 | > 16 | 0.385 | 0.144 | 0.984 | > 1.02 | 0.98 | > 10 | 0.821 | 0.174 | 0.955 | > 20 | 0.985 | > 2 | 0.98 | > 1.28 | 0.539 | 0.0831 | 0.971 | > 10.2 | 0.762 | 8.02
SK-ES-1 (Ewing sarcoma, semi-adherent) | 0.922 | > 16 | 0.524 | 0.365 | 0.98 | > 1.02 | 0.977 | > 10 | 0.504 | 0.0164 | 0.971 | > 20 | 0.97 | > 2 | 0.985 | > 1.28 | 0.111 | < 0.004 | 0.946 | > 10.2 | 0.652 | 3.4
SK-MEL-1 (melanoma, suspension) | 0.993 | > 16 | 0.881 | 4.02 | 0.993 | > 1.02 | 0.993 | > 10 | 0.947 | > 0.256 | 0.986 | > 20 | 0.981 | > 2 | 0.988 | > 1.28 | 0.979 | > 1.02 | 0.992 | > 10.2 | 0.893 | 18.2
SK-MM-2 (myeloma, suspension) | 0.98 | > 16 | 0.771 | 2 | 0.986 | > 1.02 | – | – | 0.649 | 0.0422 | 0.9 | > 20 | 0.987 | > 2 | 0.987 | > 1.28 | 0.598 | 0.121 | 0.927 | > 10.2 | 0.808 | 10.9
SK-N-DZ (neuroblastoma, adherent) | 0.891 | > 16 | 0.347 | 0.118 | 0.988 | > 1.02 | 0.987 | > 10 | 0.736 | 0.0746 | 0.966 | > 20 | 0.984 | > 2 | 0.983 | > 1.28 | 0.71 | 0.248 | 0.958 | > 10.2 | 0.332 | 0.429
SK-UT-1 (soft tissue, adherent) | 0.983 | > 16 | 0.276 | 0.0774 | 0.989 | > 1.02 | 0.985 | > 10 | 0.558 | 0.0227 | 0.985 | > 20 | 0.974 | > 2 | 0.969 | > 1.28 | 0.028 | < 0.004 | 0.976 | > 10.2 | 0.987 | > 20
SLVL (B-cell lymphoma, suspension) | 0.96 | > 16 | 0.761 | 1.87 | 0.98 | > 1.02 | 0.973 | > 10 | 0.497 | 0.0157 | 0.945 | > 20 | 0.976 | > 2 | 0.986 | > 1.28 | 0.19 | 0.00708 | 0.962 | > 10.2 | 0.91 | > 20
SNB75 (glioma, adherent) | 0.949 | > 16 | 0.316 | 0.0747 | 0.978 | > 1.02 | 0.975 | > 10 | 0.59 | 0.0316 | 0.968 | > 20 | 0.965 | > 2 | 0.944 | > 1.28 | 0.37 | 0.0237 | 0.979 | > 10.2 | 0.967 | > 20
SNU-C1 (large intestine, suspension) | 0.974 | > 16 | 0.956 | > 5 | 0.979 | > 1.02 | 0.96 | > 10 | 0.975 | > 0.256 | 0.973 | > 20 | 0.978 | > 2 | 0.975 | > 1.28 | 0.972 | > 1.02 | 0.965 | > 10.2 | 0.848 | > 20
SR (lymphoid neoplasm, suspension) | 0.925 | > 16 | 0.614 | 0.62 | 0.98 | > 1.02 | 0.962 | > 10 | 0.43 | 0.0105 | 0.777 | 7.21 | 0.978 | > 2 | 0.985 | > 1.28 | 0.14 | 0.00566 | 0.874 | 8.27 | 0.852 | 13.2
